# Hit rate of the full screen: of about 39,000 compounds, about 220 (0.56%) showed activity. The list shows a part of the results.
# Tested on: Escherichia coli K-12 BW25113
# Assay: relative growth (OD600 normalised to plate interquartile mean) (fraction); higher = less growth inhibition, active = 0.2 or less
# Conditions: 50 µM; LB; incubation time: overnight (16-24 h)
# 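Also: static incubation at 37 °C against the wild-type strain, values averaged over two biological replicates.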
row,Structure (SMILES),relative growth
1,O=C1OCC=C[C@H]2O[C@@]34C=CCN(c5ccc6ccccc6c5)C(=O)[C@H]3N(CCCCCO)C(=O)[C@@H]4[C@@H]12,inactive: 1
2,CO[C@@H]1CN(C)C(=O)c2cc(NC(=O)C3CC3)ccc2OC[C@H](C)N(C(=O)C2CCOCC2)C[C@@H]1C,inactive: 0.998
3,Cc1ccc(S(=O)(=O)Nc2ccc3c(c2)C(=O)N([C@@H](C)CO)C[C@@H](C)[C@H](CN(C)CC2CC2)O3)cc1,inactive: 1.01
4,CCO[C@@H]1OC(C(=O)N2CCN(Cc3ccc4c(c3)OCO4)CC2)=C[C@H](c2ccc3c(c2)OCO3)[C@H]1CCCO,inactive: 1.01
5,C[C@H](CO)N1C[C@H](C)[C@@H](CN(C)CC2CC2)OCCCC[C@H](C)Oc2ccc(NC(=O)Cc3ccccc3)cc2C1=O,inactive: 0.998
6,NC(=O)NCC#Cc1ccc2c(c1)[C@]1(C(=O)N2)[C@H](C(N)=O)[C@H]2C(=O)O[C@H](c3ccccc3)[C@H](c3ccccc3)N2[C@@H]1c1ccc(OCCO)cc1,inactive: 1.01
7,NC(=O)NCC#Cc1ccc2c(c1)[C@]1(C(=O)N2)[C@H](C(=O)O)[C@H]2C(=O)O[C@H](c3ccccc3)[C@H](c3ccccc3)N2[C@@H]1c1ccc(OCCO)cc1,inactive: 0.986
8,O=C(C[C@H]1C[C@@H]2c3cc(NS(=O)(=O)c4ccc(F)cc4)ccc3O[C@@H]2[C@H](CO)O1)NCc1ccccn1,inactive: 0.99
9,C[C@H](CO)N1C[C@H](C)[C@@H](CN(C)S(C)(=O)=O)Oc2c(NC(=O)c3cnccn3)cccc2C1=O,inactive: 1
10,Cc1cc(=O)n2nc(CC(=O)NCCCn3c(C)cccc3=O)nc2[nH]1,inactive: 0.981
11,C[C@@H]1CCCCO[C@H](CN(C)CC2CC2)[C@@H](C)CN([C@@H](C)CO)C(=O)c2cc(NS(=O)(=O)c3ccc(Cl)cc3)ccc2O1,inactive: 0.945
12,COc1ccc([Si](C)(C)[C@H]2[C@H](CC(=O)N3Cc4ccccc4C[C@H]3CO)O[C@@]3(C(=O)N(Cc4cccc(N5CCOC5=O)c4)c4ccccc43)[C@@H]2C)cc1,inactive: 0.999
13,COc1ccc(NC(=O)Nc2ccc3c(c2)C(=O)N([C@H](C)CO)C[C@H](C)[C@H](CN(C)C(=O)NC(C)C)OCCCC[C@H](C)O3)cc1,inactive: 0.984
14,C=CC[C@H](Nc1ccccc1C)c1ccc(Cl)cc1,inactive: 0.951
15,COc1ccc(S(=O)(=O)N(C)C[C@H]2OCCCC[C@H](C)Oc3ccc(NS(=O)(=O)c4cn(C)cn4)cc3C(=O)N([C@@H](C)CO)C[C@H]2C)cc1,inactive: 0.987
16,C[C@H]1CN([C@@H](C)CO)C(=O)Cc2cc(NC(=O)C3CC3)ccc2O[C@@H]1CN(C)Cc1ccc2c(c1)OCO2,inactive: 1
17,COc1ccc(CN(C)C[C@H]2OCCCC[C@H](C)Oc3ccc(NS(=O)(=O)c4c(C)noc4C)cc3C(=O)N([C@@H](C)CO)C[C@@H]2C)cc1,inactive: 0.889
18,C[C@@H]1CN([C@@H](C)CO)S(=O)(=O)c2ccc(-c3cncnc3)cc2O[C@H]1CN(C)C(=O)NC1CCCC1,inactive: 0.976
19,CO[C@H]1CN(C)C(=O)c2ccc(NS(C)(=O)=O)cc2OC[C@H](C)N(C(=O)c2ccc3c(c2)OCO3)C[C@H]1C,inactive: 1.01

row,Structure (SMILES),relative growth
1,C[C@@H]1CN([C@@H](C)CO)C(=O)c2cc(NS(C)(=O)=O)ccc2O[C@H]1CN(C)Cc1ccc2c(c1)OCO2,inactive: 1.01
2,Cn1c(CNc2ccccc2)cc(=O)n(C)c1=O,inactive: 0.992
3,COc1ccc(NC(=O)N(C)C[C@@H]2OCc3cn(nn3)CCCC(=O)N([C@H](C)CO)C[C@@H]2C)c(OC)c1,inactive: 1.01
4,CC(C)NC(=O)Nc1ccc2c(c1)CC(=O)N([C@@H](C)CO)C[C@@H](C)[C@H](CN(C)C(=O)NC1CCCCC1)O2,inactive: 0.994
5,C[C@H](CO)N1C[C@H](C)[C@@H](CN(C)S(=O)(=O)c2ccc(F)cc2)Oc2ccc(NC(=O)C3CC3)cc2C1=O,inactive: 0.987
6,C[C@@H]1CN([C@H](C)CO)C(=O)c2cc(C#CCN(C)C)cnc2O[C@H]1CN(C)S(=O)(=O)c1ccccc1,inactive: 0.995
7,O=C(Nc1ccc2c(c1)[C@H]1C[C@@H](CC(=O)N3CCc4ccccc4C3)O[C@H](CO)[C@H]1O2)C1CCOCC1,inactive: 1.02
8,Cc1ccc(S(=O)(=O)N(C)C[C@H]2Oc3ccc(NC(=O)NC(C)C)cc3CC(=O)N([C@@H](C)CO)C[C@@H]2C)cc1,inactive: 1.02
9,CCCC#Cc1cnc2c(c1)C(=O)N([C@H](C)CO)C[C@@H](C)[C@H](CN(C)C(=O)c1ccc3c(c1)OCO3)O2,inactive: 1.02
10,C[C@@H]1CN([C@H](C)CO)S(=O)(=O)c2ccc(C3=CCCCC3)cc2O[C@H]1CN(C)C(=O)C1CCOCC1,inactive: 1.02
11,CCS(=O)(=O)Nc1ccc2c(c1)C(=O)N(C)[C@@H]1CC[C@H](CC(=O)NCc3ccc(OC)cc3)O[C@H]1CO2,inactive: 1.03
12,C=C/C=C/[C@@H]1C(=C)CN2[C@H]1[C@H](Cc1ccccc1)OC(=O)[C@@H]2Cc1ccc(-n2cc(COc3ccccc3/C=C(C)/C=C/C(=O)NO)nn2)cc1,inactive: 0.958
13,O=C(O)c1cc2cc(Cl)ccc2[nH]1,inactive: 0.99
14,COc1ccc(S(=O)(=O)N(C)C[C@@H]2Oc3ccc(NS(=O)(=O)c4cn(C)cn4)cc3C(=O)N([C@H](C)CO)C[C@H]2C)cc1,inactive: 0.998
15,CCCNC(=O)C[C@H]1CC[C@H]2[C@@H](COc3ccc(NC(=O)Nc4ccc(C#N)cc4)cc3C(=O)N2C)O1,inactive: 0.961
16,C[C@@H]1CN([C@@H](C)CO)S(=O)(=O)c2ccc(C#Cc3ccncc3)cc2O[C@H]1CN(C)S(=O)(=O)c1ccc(F)cc1,inactive: 0.993
17,Cc1ccc(S(=O)(=O)N(C)C[C@H]2Oc3c(NS(=O)(=O)c4c(C)noc4C)cccc3C(=O)N([C@@H](C)CO)C[C@H]2C)cc1,inactive: 1.01
18,CO[C@@H]1CN(C)C(=O)c2ccc(NC(C)=O)cc2OC[C@@H](C)N(S(=O)(=O)c2cn(C)cn2)C[C@@H]1C,inactive: 0.958

# From the supplement of paper PMC9446081
